This is an account of results in PMC6078998.

Protein sequences, listed by entry. Tags and fused reporters are not part of them. Lines headed by an entry give the natural chain unless they say otherwise; changes in a name come on top. Chains listed by the source or under a name are the forms on record and can include a tag or linker. Residues count along the entry.
UniProt P54198: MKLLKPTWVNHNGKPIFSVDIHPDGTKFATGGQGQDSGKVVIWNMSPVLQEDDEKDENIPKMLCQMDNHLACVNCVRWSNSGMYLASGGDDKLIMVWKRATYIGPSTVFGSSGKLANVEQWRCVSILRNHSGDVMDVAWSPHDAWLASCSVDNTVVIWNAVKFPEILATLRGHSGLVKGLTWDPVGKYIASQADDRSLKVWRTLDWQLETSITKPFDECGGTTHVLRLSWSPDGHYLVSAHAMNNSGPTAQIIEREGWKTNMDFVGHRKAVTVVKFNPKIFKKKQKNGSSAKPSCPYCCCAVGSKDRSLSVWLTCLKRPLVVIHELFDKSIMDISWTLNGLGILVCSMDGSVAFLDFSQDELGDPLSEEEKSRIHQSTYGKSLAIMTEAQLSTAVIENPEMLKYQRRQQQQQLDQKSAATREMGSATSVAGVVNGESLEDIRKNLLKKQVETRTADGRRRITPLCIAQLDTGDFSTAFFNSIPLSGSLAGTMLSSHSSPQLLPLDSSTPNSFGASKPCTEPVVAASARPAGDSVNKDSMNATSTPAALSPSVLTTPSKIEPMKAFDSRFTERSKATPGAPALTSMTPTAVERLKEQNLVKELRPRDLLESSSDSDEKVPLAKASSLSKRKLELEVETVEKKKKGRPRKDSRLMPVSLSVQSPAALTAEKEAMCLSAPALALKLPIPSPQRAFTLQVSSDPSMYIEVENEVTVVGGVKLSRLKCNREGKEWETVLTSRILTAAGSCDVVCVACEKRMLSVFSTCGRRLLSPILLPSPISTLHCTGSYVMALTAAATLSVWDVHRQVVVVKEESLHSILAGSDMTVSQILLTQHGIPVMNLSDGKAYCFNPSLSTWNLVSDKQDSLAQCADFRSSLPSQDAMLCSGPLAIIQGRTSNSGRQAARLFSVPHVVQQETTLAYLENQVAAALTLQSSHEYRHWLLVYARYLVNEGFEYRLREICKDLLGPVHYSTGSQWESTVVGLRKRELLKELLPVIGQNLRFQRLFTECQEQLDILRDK
HIRA(1–440), YFP-tagged: residues 1-440 of P54198
HIRA(492–1017), YFP-tagged: residues 492-1017 of P54198
HIRA(Δ759–782), YFP-tagged (P54198, form named): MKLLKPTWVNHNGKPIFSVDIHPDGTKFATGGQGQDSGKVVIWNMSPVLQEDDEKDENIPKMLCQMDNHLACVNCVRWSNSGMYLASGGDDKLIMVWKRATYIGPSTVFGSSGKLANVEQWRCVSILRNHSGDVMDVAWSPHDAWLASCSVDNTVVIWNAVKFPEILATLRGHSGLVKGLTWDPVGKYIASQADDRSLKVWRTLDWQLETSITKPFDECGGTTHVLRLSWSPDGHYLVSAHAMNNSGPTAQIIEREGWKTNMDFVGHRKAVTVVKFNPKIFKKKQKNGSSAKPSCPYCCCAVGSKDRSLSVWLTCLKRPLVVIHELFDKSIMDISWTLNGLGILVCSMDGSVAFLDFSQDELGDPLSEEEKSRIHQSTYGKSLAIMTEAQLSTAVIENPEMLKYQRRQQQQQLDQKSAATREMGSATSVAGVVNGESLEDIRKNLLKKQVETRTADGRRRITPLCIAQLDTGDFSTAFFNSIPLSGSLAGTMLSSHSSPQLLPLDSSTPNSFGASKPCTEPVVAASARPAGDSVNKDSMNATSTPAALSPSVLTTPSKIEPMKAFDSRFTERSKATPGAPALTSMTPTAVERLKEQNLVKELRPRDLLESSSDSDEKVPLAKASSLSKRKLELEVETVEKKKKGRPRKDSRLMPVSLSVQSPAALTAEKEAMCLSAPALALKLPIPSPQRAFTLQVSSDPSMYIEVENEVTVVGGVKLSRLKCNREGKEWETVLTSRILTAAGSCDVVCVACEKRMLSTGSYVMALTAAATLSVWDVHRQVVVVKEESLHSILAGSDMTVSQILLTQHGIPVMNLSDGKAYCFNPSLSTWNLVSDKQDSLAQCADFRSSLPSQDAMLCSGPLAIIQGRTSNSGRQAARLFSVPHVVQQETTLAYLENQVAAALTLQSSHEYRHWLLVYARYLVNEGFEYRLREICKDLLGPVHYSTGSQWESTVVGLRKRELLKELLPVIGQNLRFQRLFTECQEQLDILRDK
HIRA(Δ629–789), YFP-tagged (P54198, form named): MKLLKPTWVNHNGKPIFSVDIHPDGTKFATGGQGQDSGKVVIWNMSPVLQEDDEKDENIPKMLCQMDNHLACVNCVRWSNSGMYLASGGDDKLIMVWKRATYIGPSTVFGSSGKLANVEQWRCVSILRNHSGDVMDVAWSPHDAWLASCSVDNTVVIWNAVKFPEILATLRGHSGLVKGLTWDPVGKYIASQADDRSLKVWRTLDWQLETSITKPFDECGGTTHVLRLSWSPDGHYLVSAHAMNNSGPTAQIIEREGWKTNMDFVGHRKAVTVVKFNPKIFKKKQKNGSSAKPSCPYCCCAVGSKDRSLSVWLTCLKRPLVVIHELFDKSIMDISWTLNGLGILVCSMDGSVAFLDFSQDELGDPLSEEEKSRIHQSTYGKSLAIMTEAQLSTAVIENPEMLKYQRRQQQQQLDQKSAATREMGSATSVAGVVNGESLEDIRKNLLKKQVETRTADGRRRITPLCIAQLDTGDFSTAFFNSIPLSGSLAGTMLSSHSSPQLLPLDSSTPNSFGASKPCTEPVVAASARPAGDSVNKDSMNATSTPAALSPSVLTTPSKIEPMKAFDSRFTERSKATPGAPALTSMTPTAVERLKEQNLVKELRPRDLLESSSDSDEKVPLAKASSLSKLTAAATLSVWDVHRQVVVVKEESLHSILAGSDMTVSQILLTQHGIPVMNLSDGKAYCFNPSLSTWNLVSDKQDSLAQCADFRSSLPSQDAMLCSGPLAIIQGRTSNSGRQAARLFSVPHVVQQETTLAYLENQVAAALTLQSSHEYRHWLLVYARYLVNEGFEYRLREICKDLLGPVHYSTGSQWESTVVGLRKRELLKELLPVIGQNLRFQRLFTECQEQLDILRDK
HIRA(Δ862–962), YFP-tagged (P54198, form named): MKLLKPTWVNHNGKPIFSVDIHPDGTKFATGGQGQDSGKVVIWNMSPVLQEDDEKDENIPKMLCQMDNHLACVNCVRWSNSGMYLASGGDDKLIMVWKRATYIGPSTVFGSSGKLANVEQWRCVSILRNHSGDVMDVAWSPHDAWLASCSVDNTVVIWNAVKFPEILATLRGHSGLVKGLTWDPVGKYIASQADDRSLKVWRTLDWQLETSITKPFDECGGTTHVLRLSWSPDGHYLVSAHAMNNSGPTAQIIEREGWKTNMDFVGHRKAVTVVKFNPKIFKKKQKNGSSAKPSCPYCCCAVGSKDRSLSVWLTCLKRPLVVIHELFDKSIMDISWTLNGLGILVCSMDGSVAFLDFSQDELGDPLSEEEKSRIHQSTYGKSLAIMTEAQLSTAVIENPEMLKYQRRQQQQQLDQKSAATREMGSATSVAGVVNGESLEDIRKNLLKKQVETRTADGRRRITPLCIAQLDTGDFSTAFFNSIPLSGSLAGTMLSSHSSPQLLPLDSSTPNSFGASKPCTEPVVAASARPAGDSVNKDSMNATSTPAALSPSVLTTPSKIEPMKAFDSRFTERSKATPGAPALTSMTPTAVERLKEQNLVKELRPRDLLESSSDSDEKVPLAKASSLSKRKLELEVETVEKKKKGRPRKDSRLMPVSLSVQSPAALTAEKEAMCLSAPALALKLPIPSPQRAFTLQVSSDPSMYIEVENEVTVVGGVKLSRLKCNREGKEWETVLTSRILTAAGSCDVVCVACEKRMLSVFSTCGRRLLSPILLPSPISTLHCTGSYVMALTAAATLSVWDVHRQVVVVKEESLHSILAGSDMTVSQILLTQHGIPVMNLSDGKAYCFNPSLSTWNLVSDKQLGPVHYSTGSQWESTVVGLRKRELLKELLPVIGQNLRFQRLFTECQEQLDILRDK
HIRA(Δ759–863), YFP-tagged (P54198, form named): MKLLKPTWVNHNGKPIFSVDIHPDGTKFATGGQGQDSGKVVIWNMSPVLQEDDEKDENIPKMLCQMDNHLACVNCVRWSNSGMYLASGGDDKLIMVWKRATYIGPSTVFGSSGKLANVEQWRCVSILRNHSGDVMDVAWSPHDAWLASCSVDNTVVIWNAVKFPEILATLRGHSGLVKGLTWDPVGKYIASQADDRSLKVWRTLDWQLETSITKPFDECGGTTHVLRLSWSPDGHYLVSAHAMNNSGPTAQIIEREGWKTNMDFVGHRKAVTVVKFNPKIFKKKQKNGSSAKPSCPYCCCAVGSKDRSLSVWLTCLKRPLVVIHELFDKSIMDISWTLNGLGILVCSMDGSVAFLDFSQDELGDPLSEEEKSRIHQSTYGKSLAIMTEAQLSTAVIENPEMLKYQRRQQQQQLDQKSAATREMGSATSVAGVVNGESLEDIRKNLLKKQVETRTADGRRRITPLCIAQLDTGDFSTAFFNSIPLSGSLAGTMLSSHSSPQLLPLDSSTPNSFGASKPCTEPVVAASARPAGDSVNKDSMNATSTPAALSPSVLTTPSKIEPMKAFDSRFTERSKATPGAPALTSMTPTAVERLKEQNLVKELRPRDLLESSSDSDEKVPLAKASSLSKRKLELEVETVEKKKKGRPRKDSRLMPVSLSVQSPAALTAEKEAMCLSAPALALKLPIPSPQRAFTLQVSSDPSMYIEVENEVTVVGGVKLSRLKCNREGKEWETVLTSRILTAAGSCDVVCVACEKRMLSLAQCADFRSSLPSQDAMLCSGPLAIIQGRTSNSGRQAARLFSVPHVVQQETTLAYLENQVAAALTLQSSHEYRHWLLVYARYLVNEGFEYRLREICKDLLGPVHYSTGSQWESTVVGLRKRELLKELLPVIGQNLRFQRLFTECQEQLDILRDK
UniProt Q9Y294: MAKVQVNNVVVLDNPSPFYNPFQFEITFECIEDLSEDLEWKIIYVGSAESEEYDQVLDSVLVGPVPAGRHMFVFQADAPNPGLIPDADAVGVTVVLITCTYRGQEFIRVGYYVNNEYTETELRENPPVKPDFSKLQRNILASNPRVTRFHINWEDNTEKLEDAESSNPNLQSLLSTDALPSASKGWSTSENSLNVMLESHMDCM
UniProt Q9NPG3: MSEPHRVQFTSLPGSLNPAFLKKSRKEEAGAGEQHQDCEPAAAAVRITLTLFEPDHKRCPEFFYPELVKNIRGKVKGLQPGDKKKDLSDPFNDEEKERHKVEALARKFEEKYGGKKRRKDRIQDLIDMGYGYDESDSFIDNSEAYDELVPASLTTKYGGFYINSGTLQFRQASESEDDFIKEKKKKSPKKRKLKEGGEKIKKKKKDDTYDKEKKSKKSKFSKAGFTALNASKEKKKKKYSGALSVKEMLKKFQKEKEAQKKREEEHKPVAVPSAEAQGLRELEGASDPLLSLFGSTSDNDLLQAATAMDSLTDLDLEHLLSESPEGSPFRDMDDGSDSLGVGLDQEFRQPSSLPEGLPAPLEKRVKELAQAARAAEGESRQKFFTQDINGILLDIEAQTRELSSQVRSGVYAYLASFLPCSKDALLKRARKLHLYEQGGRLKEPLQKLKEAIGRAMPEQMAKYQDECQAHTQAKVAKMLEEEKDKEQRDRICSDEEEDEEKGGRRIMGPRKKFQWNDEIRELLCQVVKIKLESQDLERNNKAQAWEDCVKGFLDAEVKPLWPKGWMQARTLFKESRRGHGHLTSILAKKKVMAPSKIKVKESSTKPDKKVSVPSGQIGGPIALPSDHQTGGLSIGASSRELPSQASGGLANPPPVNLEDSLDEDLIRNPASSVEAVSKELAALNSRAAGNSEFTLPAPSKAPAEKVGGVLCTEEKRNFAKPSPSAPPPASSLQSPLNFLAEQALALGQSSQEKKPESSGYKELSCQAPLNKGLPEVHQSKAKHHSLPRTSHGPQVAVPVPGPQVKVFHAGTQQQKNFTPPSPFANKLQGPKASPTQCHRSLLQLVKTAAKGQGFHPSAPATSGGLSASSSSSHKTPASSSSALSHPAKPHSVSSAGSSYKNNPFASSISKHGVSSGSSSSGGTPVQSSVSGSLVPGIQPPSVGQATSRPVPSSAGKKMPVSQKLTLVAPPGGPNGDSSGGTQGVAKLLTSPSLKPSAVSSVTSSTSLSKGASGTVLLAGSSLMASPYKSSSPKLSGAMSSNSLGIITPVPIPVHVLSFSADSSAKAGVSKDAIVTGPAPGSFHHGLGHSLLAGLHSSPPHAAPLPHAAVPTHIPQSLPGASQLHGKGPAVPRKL

Experiment [1] has as its target HIRA(Δ759–782), YFP-tagged (human) (UniProt P54198). Kind of experiment: co-IP; GFP-Trap agarose beads on nuclear extracts (300 mM NaCl) of U2OS cells transfected with YFP-tagged HIRA constructs, alone or together with HIRA-HA; overnight at 4 °C, 150 mM NaCl, 0.5% Nonidet-P40 substitute, washes 300 mM NaCl; western blot for endogenous HIRA, UBN1, CABIN1, ASF1a or HA; one panel with cells treated with siRNA control or siCABIN1.

Experiment [2] deals with HIRA(I461D), YFP-tagged (human) (UniProt P54198). Described as above.
The next experiment deals with HIRA-YFP wt (human) (UniProt P54198). The experiment is described as above.
The target in experiment [3] is HIRA(W799A–D800A), YFP-tagged (human) (UniProt P54198). Described as above.
The target in experiment [4] is HIRA(Δ629–789), YFP-tagged (human) (UniProt P54198). Described as above.
Experiment [5] addresses HIRA(Δ862–962), YFP-tagged (human) (UniProt P54198). Described as above.
Experiment [6] has as its target HIRA(Δ759–863), YFP-tagged (human) (UniProt P54198). The experiment is described as above.
Experiment [7] addresses HIRA(1–440), YFP-tagged (human) (UniProt P54198). Described as above.
Experiment [8] concerns the target HIRA(Δ759–782 + R227K), YFP-tagged (human) (UniProt P54198). Described as above.
For experiment [9], the target named is HIRA(492–1017), YFP-tagged (human) (UniProt P54198). The description is as above.
Experiment [10] concerns the target HIRA(R227K), YFP-tagged (human) (UniProt P54198). The experiment is described as above.
The target of experiment [11] is recombinant human HIRA(661–1017) (human) (UniProt P54198). Kind of experiment: SEC; purified HIRA(661–1017) alone on a size-exclusion column; 20 mM Tris pH 8.0, 300 mM NaCl, 1 mM TCEP; both purified. Background: SEC sorts molecules by how far they enter the pores of the column.

No constants are given. Whether binding was seen depends on the method and setting. For part of these data: In cells and extracts the contact can be indirect. Some results given as binding are weak or reduced against the parent protein; the word gives no strength.

In the case of “Anti-silencing factor 1 a (ASF1a), endogenous (from UniProt Q9Y294 1-204)”, the binding entry in [1] is “binds”; in [2], “no binding”; with HIRA-YFP wt (human) it was “binds”; in [3], “binds”.

With HIRA-HA wt (from UniProt P54198 1-1017), the binding result in [4], in experiment [5] and in [6] was “binds” throughout.

In the case of “Ubinuclein 1 (UBN1), endogenous (from UniProt Q9NPG3 1-1134)”, the binding entry is “binds” in experiment [1]; “binds” in [7]; “no binding” in experiment [8]; “binds” with HIRA-YFP wt (human); “binds” in [3]; “binds” in experiment [9]. Also, the binding entry in experiment [10] was “binds”.

Turning to “endogenous HIRA (from UniProt P54198 1-1017)”, the binding result is recorded as “no binding” in [7], “no binding” in experiment [3] and “binds” in experiment [9].

For the substance “recombinant human HIRA(661–1017) (from UniProt P54198 661-1017) (domain or fragment)”, the binding result in experiment [11] was “binds”.
